Some of the results follow. Sequences were assembled here from the parent chain. Values near 0.05 are background.
B1: TEV protease; numbered along this chain (parent)
chain: MGESLFKGPRDYNPISSSICHLTNESDGHTTSLYGIGFGPFIITNKHLFRRNNGTLVVQSLHGVFKVKDTTTLQQHLVDGRDMIIIRMPKDFPPFPQKLKFREPQREERICLVTTNFQTKSMSSMVSDTSCTFPSGDGIFWKHWIQTKDGQCGSPLVSTRDGFIVGIHSASNFTNTNNYFTSVPKNFMELLTNQEAQQWVSGWRLNADSVLWGGHKVFMVKPEEPFQPVKEATQL

Variants of: B1
Assay: raw area under fraction-flipped curve 0-4 h after induction (AUC4h, not background-subtracted), DNA-recorder readout of cleavage of the substrate (dimensionless); higher = more cleavage of the substrate by the protease variant
Conditions: temperature: 34 °C; time window: 0-4 h after rhamnose induction
Method: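 In vivo DNA recorder in E. coli TOP10(DE3) ΔrhaA at 34 °C. Each TEVp single-site mutant (parent TEVp 0) is paired with a single-site variant of the 7-mer TEVs (canonical ENLYFQ|S). The substrate sits between flexible linkers in a Bxb1-sfGFP-TEVs-SsrA fusion, so cleavage stabilises Bxb1 and speeds flipping of a recombination array, read by NGS. The value is the raw area under the fraction-flipped curve over 0-4 h after rhamnose induction (AUC4h), with ≥20 reads per time point. It is not background-subtracted; inactive controls average about 0.047.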
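Also: Bxb1 expression induced with 0.2% (w/v) L-rhamnose at OD600 near 0.5, cultures sampled hourly, flipped fraction per protease–substrate barcode pair counted by paired-end Illumina sequencing.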

| Variant | area with substrate EALYFQS | area with substrate ECLYFQS | area with substrate EELYFQS | area with substrate EGLYFQS | area with substrate EHLYFQS | area with substrate EILYFQS | area with substrate EKLYFQS | area with substrate EPLYFQS | area with substrate EQLYFQS | area with substrate ERLYFQS | area with substrate ESLYFQS | area with substrate ETLYFQS | area with substrate EVLYFQS | area with substrate EYLYFQS | area with substrate EFLYFQS | area with substrate ELLYFQS | area with substrate EMLYFQS | area with substrate EWLYFQS | area with substrate EDLYFQS |
| --- | --- | --- | --- | --- | --- | --- | --- | --- | --- | --- | --- | --- | --- | --- | --- | --- | --- | --- | --- |
| G136C | 0.16 | 0.108 | 0.127 | 0.101 | 0.0995 | 0.113 | 0.109 | 0.107 | 0.148 | 0.09 | 0.109 | 0.115 | 0.0952 | 0.106 |  |  |  |  |  |
| G136D | 0.108 | 0.0956 | 0.111 |  | 0.126 | 0.0969 | 0.0877 | 0.0921 | 0.127 |  | 0.0887 |  | 0.087 | 0.0814 | 0.0919 | 0.0812 | 0.131 |  |  |
| K142W | 0.0741 | 0.0895 | 0.088 | 0.0605 |  | 0.0775 |  | 0.0888 |  |  | 0.0657 |  | 0.0734 |  |  |  |  |  |  |
| C131M | 0.12 | 0.0809 | 0.076 |  | 0.0968 | 0.0965 |  |  | 0.113 | 0.11 |  |  | 0.0922 | 0.118 |  |  |  |  |  |
| V157E | 0.047 |  | 0.057 | 0.0566 |  | 0.067 | 0.0649 | 0.0487 | 0.0492 | 0.0694 | 0.0453 | 0.0482 | 0.0054 | 0.0648 | 0.0581 |  |  |  |  |
| V157W | 0.105 | 0.0724 | 0.0696 | 0.0722 |  | 0.0627 | 0.0722 | 0.0823 | 0.0672 | 0.0624 | 0.0673 |  | 0.0653 | 0.0631 |  | 0.0685 | 0.07 |  |  |
| T114R | 0.135 | 0.122 |  |  |  | 0.091 | 0.127 |  |  | 0.113 | 0.112 | 0.141 | 0.111 |  |  | 0.0968 | 0.118 | 0.0917 |  |
| S158N | 0.0991 |  | 0.104 | 0.0708 |  | 0.0604 | 0.102 | 0.0917 |  | 0.0769 | 0.0808 |  | 0.0685 |  | 0.0764 |  |  |  | 0.0813 |
| S135K | 0.0825 | 0.0583 |  |  | 0.0591 | 0.0553 |  |  | 0.068 | 0.0593 | 0.072 |  | 0.0599 |  |  | 0.0495 |  |  | 0.043 |
| S135N | 0.0763 |  | 0.134 |  | 0.0712 | 0.0487 | 0.0798 | 0.122 | 0.0802 | 0.0669 | 0.0824 | 0.0346 | 0.0814 |  |  | 0.0769 | 0.0857 | 0.0871 | 0.0897 |
| S135F | 0.0583 |  |  | 0.0637 | 0.0742 | 0.0685 |  |  | 0.0613 | 0.0685 | 0.0614 | 0.062 | 0.0563 | 0.0572 | 0.0569 | 0.0741 | 0.0821 | 0.0522 | 0.0621 |
| S123N | 0.116 | 0.0927 | 0.102 |  | 0.124 | 0.121 | 0.13 | 0.108 |  | 0.105 | 0.115 | 0.0929 | 0.0861 | 0.159 |  | 0.0737 |  | 0.129 |  |
| I145V | 0.143 |  |  | 0.0832 | 0.121 |  | 0.132 | 0.115 |  |  |  | 0.171 | 0.124 |  | 0.146 |  |  |  | 0.152 |
| S130V | 0.124 | 0.101 |  |  |  |  | 0.126 | 0.132 | 0.104 | 0.0871 | 0.105 | 0.104 | 0.104 | 0.0975 |  |  | 0.103 |  |  |
| S130E | 0.115 |  |  | 0.0711 |  |  | 0.0594 |  | 0.0893 | 0.0721 | 0.0809 |  |  |  | 0.0693 |  | 0.0961 |  |  |
| K148C | 0.111 | 0.0879 | 0.102 | 0.124 |  | 0.0895 | 0.0927 | 0.133 | 0.107 | 0.0963 | 0.106 | 0.0913 | 0.0954 | 0.0938 | 0.14 | 0.086 | 0.0993 | 0.092 |  |
| I139V | 0.207 | 0.133 | 0.165 |  | 0.133 | 0.104 | 0.107 |  | 0.157 | 0.12 | 0.103 | 0.136 | 0.0949 | 0.109 |  | 0.0912 | 0.144 | 0.0922 |  |
| Q146P | 0.113 | 0.104 | 0.105 | 0.0828 | 0.123 | 0.087 |  | 0.126 | 0.117 | 0.0814 | 0.0891 |  | 0.108 |  |  | 0.118 | 0.112 | 0.12 |  |
| Q146D | 0.106 | 0.129 | 0.088 |  |  | 0.0873 |  |  | 0.0899 | 0.101 | 0.103 |  |  | 0.166 | 0.094 | 0.109 |  |  |  |
| Q146V | 0.113 | 0.103 | 0.0946 | 0.101 |  | 0.08 |  |  | 0.125 | 0.107 | 0.107 | 0.12 |  | 0.102 |  | 0.0938 | 0.125 |  |  |
| T147M | 0.0777 | 0.0847 |  |  |  | 0.0684 |  |  | 0.108 | 0.0878 | 0.0882 | 0.105 | 0.0818 |  |  | 0.067 |  |  | 0.12 |
| T147F | 0.0596 |  | 0.0558 | 0.046 | 0.07 | 0.0477 |  |  | 0.0589 | 0.0736 | 0.0558 | 0.0481 | 0.0578 |  |  | 0.0147 | 0.0638 |  | 0.0745 |
| T147R | 0.0694 | 0.0657 | 0.0616 | 0.0541 | 0.0651 | 0.057 | 0.0711 |  | 0.0733 | 0.0576 | 0.0606 |  | 0.0513 | 0.0646 |  | 0.0739 |  |  |  |
| Q151Y | 0.0789 |  |  | 0.0715 |  | 0.0962 | 0.0838 |  | 0.0797 | 0.0842 | 0.0793 | 0.0449 | 0.0756 |  | 0.0843 | 0.0776 | 0.0743 |  | 0.109 |
| Q151T | 0.0906 | 0.0902 |  |  | 0.0946 | 0.052 |  | 0.0691 | 0.0992 | 0.0856 | 0.0897 | 0.0945 | 0.0854 |  |  | 0.09 |  | 0.0921 |  |
| Q151N | 0.081 | 0.0712 | 0.0676 | 0.064 | 0.0729 | 0.0795 | 0.085 | 0.0691 | 0.0714 | 0.0816 | 0.0739 | 0.0896 | 0.0587 |  | 0.0697 | 0.0624 |  |  |  |
| T132C | 0.142 | 0.0876 |  | 0.0885 |  | 0.094 |  |  | 0.13 | 0.0885 | 0.111 |  | 0.104 | 0.11 |  | 0.107 |  | 0.108 |  |
| T132E | 0.0591 |  | 0.0592 |  |  | 0.0537 | 0.0647 | 0.0528 | 0.0686 | 0.0616 | 0.0594 |  | 0.0613 | 0.065 | 0.0602 | 0.0539 | 0.0601 |  |  |
